In patent publication US20150366962A1 (priority 2014, published 2015):

Legend:
[1] = test system: B/Florida/04/2006 (Yamagata lineage); parameters: species or system BALB/c mice; settings: mouse, in vivo
[2] = test system: A/Puerto Rico/8/1934(H1N1); parameters: species or system BALB/c mice; settings: mouse, in vivo

Row | Compound | morbidity (weight loss) compared to the no-adjuvant group [1] | morbidity as measured by weight loss [2] | morbidity (weight loss) compared to no-adjuvant control receiving 5 μg of rHA [2]
1 | CCCCCCCCC=CCCCCCCCC(=O)OCC(COP(=O)(O)OCCNC(=O)c1ccc(Cn2c(=O)[nH]c3c(N)nc(OCCOC)nc32)cc1)OC(=O)CCCCCCCC=CCCCCCCCC (centres unmarked) [Compound 1V270] | significantly reduced | provided protective efficacy | –
2 | Cn1c2ccccc2c2nc(SCC(=O)NC3CCCCC3)n(-c3ccccc3)c(=O)c21 [Compound 1Z105] | reduced morbidity by restricting weight loss on days 7 and 8 post infection | provided protective efficacy | significantly minimized
